# Assay results from PubChem BioAssay (NCATS).
# Where “and” joins values, the source holds several entries; their conditions need not be identical. Identical values can stand only once. The inconclusive results got no clear call from the source; some entries with a clear call stand among them for comparison. A call without a number means that no potency is given here. Where the call is inconclusive, the potency comes from a doubtful curve fit. Calls of active or inactive are those of the source. Calls follow the shape of the dose curve; as a rule, active = well fitted cell-killing curve with a large enough effect; inconclusive = small, poorly fitted or top-dose-only effect; inactive = no such curve, though single readings can be large or run the other way.
# Test: qHTS of pediatric cancer cell lines to identify multiple opportunities for drug repurposing: Primary screen for Rh30 cells (AID 1347107); also: nearly all actives have a fitted effect of over 75% in size
# Details: Rh30 rhabdomyosarcoma viability, CellTiter-Glo luminescence, 48 h; series mostly up to 46 µM
# In short: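 Cells (500-1,000/well) rested 5 h, then received compounds for 48 h; metabolically active cells were measured by CellTiter-Glo luminescence. Final concentrations spanned up to 46 µM (MIPE, 11-point) or 0.59 nM-46 µM (NPC, 8-point) in primary screens, 11-point in follow-ups.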
# Potency is read from the fitted curve at half-maximal effect; tags tell the direction and shape of the fitted curve.
row,Compound,Potency
1,CC(C)C(=O)Nc1ccc([N+](=O)[O-])c(C(F)(F)F)c1,"inconclusive: 11.8 µM [cytotoxic, partial curve]"
2,Oc1ccc(C2CCN(c3ccnc4ccccc34)CC2)cc1O,"inconclusive: 7.43 µM [cytotoxic, partial curve]"
3,CC(=O)c1ccc(OCC(=O)N2CCCCC2)cc1,inactive
4,CS(=O)c1ccc(-c2nc(-c3ccc(F)cc3)c(-c3ccncc3)[nH]2)cc1 (stereo unspecified),"inconclusive: 34 µM [cytotoxic, partial curve]"
5,CC(=Cc1ccccc1)C=C1SC(=S)N(CC(=O)O)C1=O,inactive
6,OC[C@H]1O[C@@H](n2cnc3c2NC=NC[C@@H]3O)C[C@H]1O,"inconclusive: 18.7 µM [cytotoxic, partial curve]"
7,c1ccc2occc2c1,inactive
8,NC1CCC(Nc2nc(Nc3ccc(C(=O)N4CCCCC4)cc3)c3ncn(-c4cccc(F)c4)c3n2)CC1 (stereo unspecified),inactive
9,OC[C@@H](O)[C@@H](O)[C@H](O)[C@H](O)CO,inactive
10,Cc1cc(O)c2c(c1)C(=O)c1cc(O)cc(O)c1C2=O,"inconclusive: 14.8 µM [cytotoxic, partial curve, poor fit]"
11,O=S(=O)(O)CCSSCCS(=O)(=O)O,inactive
12,CNCC(O)c1ccc(O)c(O)c1 (stereo unspecified),"inconclusive: 18.8 µM [cytotoxic, partial curve, poor fit]"

# Test: qHTS of pediatric cancer cell lines to identify multiple opportunities for drug repurposing: Primary screen for Rh41 cells (AID 1347108); also: nearly all actives have a fitted effect of over 70% in size
# Details: Rh41 rhabdomyosarcoma viability, CellTiter-Glo luminescence, 48 h; series mostly up to 46 µM
# In short: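 ATP-based luminescence (CellTiter-Glo) quantifies viability after a 48-hour exposure. Compounds are dosed across 8 or 11 final concentrations; DMSO and 2.3 µM bortezomib serve as controls.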
row,Compound,Potency
1,CCOc1ccc2nc(S(N)(=O)=O)sc2c1,inactive
2,CC(C)C(=O)Nc1ccc([N+](=O)[O-])c(C(F)(F)F)c1,"inconclusive: 13.3 µM [cytotoxic, single point] and active: 11.8 µM"
3,CC1(C)S[C@@H]2[C@H](NC(=O)Cc3ccccc3)C(=O)N2[C@H]1C(=O)O (tested in a mixture with another compound),inactive
4,Oc1ccc(C2CCN(c3ccnc4ccccc34)CC2)cc1O,"inconclusive: 11.8 µM [cytotoxic, partial curve]"
5,O=C(O)c1c(O)c(-c2ccccc2)nc2ccccc12,inactive
6,CCCCCCCC/C=C/C(=O)O,inactive
7,CS(=O)c1ccc(-c2nc(-c3ccc(F)cc3)c(-c3ccncc3)[nH]2)cc1 (stereo unspecified),"inconclusive: 13.6 µM [cytotoxic, partial curve]"
8,FC(F)(F)C(F)(F)C(F)(F)C(F)(F)C(F)(F)C(F)(F)C(F)(F)C(F)(F)Br,inactive
9,Nc1ncnc2c1ncn2[C@@H]1O[C@@H](CO)[C@H](O)[C@H]1O,inactive
10,OC[C@H]1O[C@@H](n2cnc3c2NC=NC[C@@H]3O)C[C@H]1O,inactive
11,CN1C(=O)C(Cc2c[nH]c3ccccc23)NC1=S (stereo unspecified),"inconclusive: 6.62 µM [cytotoxic, partial curve, poor fit]"
12,CC(C)(O)[C@H]1CC[C@@](C)([C@H]2[C@@H](O)C[C@@]3(C)[C@@H]4C[C@H](O[C@@H]5O[C@H](CO)[C@@H](O)[C@H](O)[C@@H]5O)[C@H]5C(C)(C)[C@@H](O[C@@H]6OC[C@@H](O)[C@H](O)[C@@H]6O)CC[C@@]56C[C@@]46CC[C@]23C)O1,"inconclusive: 18.7 µM [cytotoxic, partial curve, poor fit]"
13,O=C(CCCl)NCc1ccccc1,inactive
14,Cc1ccc(S(=O)(=O)NC(=O)NC2CCCCC2)cc1,inactive
15,C[N+]1(C)[C@@H]2C[C@@H](OC(=O)C(O)(c3cccs3)c3cccs3)C[C@H]1[C@@H]1O[C@@H]12,inactive
16,O=C(O)[C@H](CC(=O)N1C[C@@H]2CCCC[C@H]2C1)Cc1ccccc1,inactive
17,COc1ccccc1OCC(O)CN1CCN(CC(=O)Nc2c(C)cccc2C)CC1 (stereo unspecified),inactive
18,NC1CCC(Nc2nc(Nc3ccc(C(=O)N4CCCCC4)cc3)c3ncn(-c4cccc(F)c4)c3n2)CC1 (stereo unspecified),inactive
19,CC(C)NCC(O)COc1ccc(CCOCC2CC2)cc1 (stereo unspecified),inactive
20,O=C(O)c1cc(O)c(O)c(O)c1,inactive
21,N#Cc1ccc(NC(=O)Nc2ccccc2Br)c2n[nH]nc12,inactive
22,Cc1ccnc(NS(=O)(=O)c2ccc(NC(=O)Nc3ccc(S(=O)(=O)Nc4nccc(C)n4)cc3)cc2)n1,inactive
23,COc1ccc(CC2=NN3C([C@@H](CCc4ccccc4)[C@@H](C)O)=NC(C)C3C(=O)N2)cc1OC (stereo partly specified),"inconclusive: 8.33 µM [cytotoxic, partial curve]"
24,O=c1cc(-c2ccccc2)oc2cc(O)cc(O)c12,"inconclusive: 0.469 µM [cytotoxic, partial curve, poor fit]"
